Data as given in patent US9090651B2, “Helix 12 directed pharmaceutical products” (ENDORECHERCHE, INC., priority 2004, dated 2015).
Where “and” joins values, the source holds several entries; their conditions need not be identical. Equal values may be shown once. The name of at least one read-out is uncertain.

system: rat seminal vesicle; test: Systemic antiandrogenic activity, orchidectomized immature male rats with DHT implant: seminal vesicle weight; assay type: in vivo; settings: 0.5 mg/animal once daily for 7 days
Experimental: (§1) Immature male rats (Crl:CD(SD)Br) 22 to 24-day old were obtained from Charles-River, Inc. (St-Constant, Quebec, Canada) and housed up to 5 per cage in plastic bins in a temperature (23±1° C.)- and light (12 h light/day, lights on at 7 h15)-controlled environment. The rats were fed rodent chow and tap water ad libitum. The day following their arrival, the animals were orchidectomized (CX) under Isoflurane anesthesia via scrotal route and randomly assigned to groups of 5 animals.
(§2) Compounds were solubilized (when possible) in dimethylsulfoxide (DMSO, 10% final concentration) and administered as suspension in 0.4% methylcellulose. […] One group of animals received the antiandrogen Flutamide as reference. The animals were killed by cervical dislocation under isoflurane anesthesia on the 8th morning following castration. The ventral prostate and seminal vesicles were rapidly dissected and weighed.
(§3) W is the weight of the prostate or the seminal vesicle.

Structure (SMILES)	IN VIVO Rat s.c. (+DHT) SV % inhibition
CCC(Cc1cccc(OCC[C@]23CCC4C5CCC(=O)C=C5CCC4C2CC[C@@H]3O)c1)NC1CCCC1 (stereo partly drawn) [EM-6753]	0% and 6%

system: sebaceous glands of the left ear; test: Topical antiandrogenic activity, ear sebaceous glands model in the male hamster; assay type: in vivo; settings: 10 μg daily for 14 days, topical on left pinna
Experimental: The antiandrogenic activity of compounds for topical use was determined using the ear sebaceous glands model in the male hamster.
Male Golden Syrian Hamsters (SYR) of 110-120 g were obtained from Harlan Sprague-Dawley (Madison, USA) and housed up to 2 per plastic cage in a temperature (22±3° C.) and light (12 h light/day, lights on at 7 h15)-controlled environment. The hamsters were fed with Certified Rodent Diet 5002 (pellet) and had access to tap water ad libitum. The animals were acclimatized for at least five days prior to beginning the study. Animals were randomly assigned to groups of eight hamsters. One group of hamsters were castrated under isoflurane-induced anesthesia on the day of dosing initiation (SD 1) and used as control group.
To evaluate the antiandrogenic activity, the tested compounds were applied topically on the inner part of the left ear, once daily, for 14 days. […] For animals of the castrated and intact control groups, one ten-μL vehicle was applied onto the left ear. No solution was applied on the right ear.
On Study Day 15, the hamsters were euthanized by cervical dislocation under isoflurane anesthesia. The left and right ears were collected attached together by the head skin, flat fixed on a paper and then immersed in 10% neutral buffered formalin. Punctures making a circular hole of 6 mm were made on the flat fixed ear in the region where the solution has been applied. These punch-made specimens were collected from each ear. Using a scalpel blade, the collected 6 mm round ear specimens were cut in the middle between the two cartilage ridges. The two equal parts of the ear round specimens were embedded in paraffin. After processing the tissue, the two parts were vertically embedded parallel to each other in such a way that the flat 6 mm area was facing out. From each paraffin block, one section (5 μm thick) was cut and collected on a glass slide. Thus, each slide contained two elongated sections of 6 mm length. Slides were stained with hematoxylin and eosin.
Using the video camera and the lens number X5 of the light microscope, the resulting field appearing on the screen has a length of 0.953 mm. When the first 6 mm long section was examined from the left to the right, the first and second fields were ignored and the third and fourth fields were captured for analysis by the image analyzer. Each field has the length of 0.953 mm. With the help of the screen mouse, the sebaceous glands within the whole field length (0.953 mm) were marked. Also, an area having the length of the whole field and the height between stratum granulosum and the upper edge of the cartilage was drawn.
The total area of the sebaceous glands (μm^2) in each examined field was calculated by the Image Analyser. We also measured the total area, which has the length of 0.953 mm and the height between stratum granulosum and the cartilage. In addition, the percentage of the area occupied by the glands was obtained. Thus, for each ear, two sections were cut and two fields from each section were analyzed. The total of the four readings was averaged and the mean standard error of the mean was calculated by the image analyzer. The results were expressed in μm^2 as the total surface of glands per field and also as percentage of the area occupied by the glands in the tissue.

Structure (SMILES)	Antiandrogenic activity in Hamster Ear Area Inh Vs Cx (%)
CCC[C@H](NC(CC)CC)c1cccc(OCC[C@]23CCC4C(CCC5CC(=O)CC[C@@]54C)C2CC[C@@H]3O)c1 (stereo in doubt) [EM-6445]	52% and 89%
CCC(CC)NC(CC)c1cccc(OCC[C@]23CCC4C(CCC5CC(=O)CC[C@@]54C)C2CC[C@@H]3O)c1 (stereo partly drawn) [EM-6339]	56%
CCN(C1CCCCC1)[C@H](C)c1cccc(OCC[C@]23CCC4C(CCC5CC(=O)CC[C@@]54C)C2CC[C@@H]3O)c1 (stereo partly drawn) [EM-6414]	37%
CC[C@H](NC1CCCCC1)c1cccc(OCC[C@]23CCC4C(CCC5CC(=O)CC[C@@]54C)C2CC[C@@H]3O)c1 (stereo partly drawn) [EM-6415]	68%
CCC(CC)NC(c1cccc(OCC[C@]23CCC4C(CCC5CC(=O)CC[C@@]54C)C2CC[C@@H]3O)c1)C(C)C (stereo partly drawn) [EM-6446]	53%
CC(C)CN1CCCCC1c1cccc(OCC[C@]23CCC4C(CCC5CC(=O)CC[C@@]54C)C2CC[C@@H]3O)c1 (stereo partly drawn) [EM-6493]	26%
CC(C)CNC(C)(C)c1cccc(OCC[C@]23CCC4C(CCC5CC(=O)CC[C@@]54C)C2CC[C@@H]3O)c1 (stereo partly drawn) [EM-6534]	42%

system: rat prostate; test: Systemic antiandrogenic activity, orchidectomized immature male rats with DHT implant: prostate weight; assay type: in vivo; settings: 0.5 mg/animal once daily for 7 days
Experimental: as §1, §2, §3

Structure (SMILES)	IN VIVO Rat s.c. (+DHT) Prostate % inhibition
CCC(NC1CCCC1)c1cccc(OCC[C@]23CCC4C5CCC(=O)C=C5C[C@@H](C)C4C2CC[C@]3(C)O)c1 (mixture of isomers) [EM-6733]	23%
CCC(NC1CCCCC1)c1cccc(OCC[C@]23CCC4C(CCC5=CC(=O)CC[C@@]54C)C2CC[C@@H]3O)c1 (stereo partly drawn) [EM-6798]	34%

system: Shionogi mouse mammary carcinoma cells; test: Androgenic/antiandrogenic activity on DHT-stimulated Shionogi cell growth; assay type: cell-based; settings: Table 4; ratio of Ki hydroxyflutamide versus tested compound

Structure (SMILES)	Shionogi VS OH-FLU
CCC(CC)NC(CC)c1cccc(OCC[C@]23CCC4C(CCC5CC(=O)CC[C@@]54C)C2CC[C@@H]3O)c1 (stereo partly drawn) [EM-6339]	36 and 21
CCC(CC)N(C)C(CC)c1cccc(OCC[C@]23CCC4C5CCC(=O)C=C5CCC4C2CC[C@@H]3O)c1 (stereo partly drawn) [EM-6680]	28 and 49
